{
  "source": "ChEMBL document CHEMBL4043168",
  "about": "“The design and SAR of a novel series of 2-aminopyridine based LRRK2 inhibitors” (Bioorg Med Chem Lett, 2017)",
  "key": {"[1]": {"experiment": "Intrinsic clearance in human liver microsomes", "type": "ADME, microsome", "conditions": "read-out: CLH (converted)"}, "[2]": {"target": "T1, Scaffold protein ILK (Homo sapiens) (UniProt Q13418)", "T1 sequence (whole entry)": "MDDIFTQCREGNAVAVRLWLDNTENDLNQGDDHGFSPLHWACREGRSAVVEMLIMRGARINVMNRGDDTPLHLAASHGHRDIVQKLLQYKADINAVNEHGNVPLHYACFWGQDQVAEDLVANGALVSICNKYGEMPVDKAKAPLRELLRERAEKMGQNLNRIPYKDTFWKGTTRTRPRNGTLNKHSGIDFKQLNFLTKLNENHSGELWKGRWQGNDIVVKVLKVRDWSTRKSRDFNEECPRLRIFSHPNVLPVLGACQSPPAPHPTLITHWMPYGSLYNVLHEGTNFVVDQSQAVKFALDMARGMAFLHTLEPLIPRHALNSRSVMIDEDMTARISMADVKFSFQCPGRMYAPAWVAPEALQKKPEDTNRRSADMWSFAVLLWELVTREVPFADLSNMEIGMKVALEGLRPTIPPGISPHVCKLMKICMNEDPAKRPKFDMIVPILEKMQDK", "experiment": "Inhibition of ILK conserved Lys1 (WQGNDIVVKVLK) in human PBMC at 1 uM"}, "[3]": {"target": "Mitogen-activated protein kinase kinase kinase 11 (Homo sapiens) (UniProt Q16584)", "sequence (Q16584 whole entry, looked up)": "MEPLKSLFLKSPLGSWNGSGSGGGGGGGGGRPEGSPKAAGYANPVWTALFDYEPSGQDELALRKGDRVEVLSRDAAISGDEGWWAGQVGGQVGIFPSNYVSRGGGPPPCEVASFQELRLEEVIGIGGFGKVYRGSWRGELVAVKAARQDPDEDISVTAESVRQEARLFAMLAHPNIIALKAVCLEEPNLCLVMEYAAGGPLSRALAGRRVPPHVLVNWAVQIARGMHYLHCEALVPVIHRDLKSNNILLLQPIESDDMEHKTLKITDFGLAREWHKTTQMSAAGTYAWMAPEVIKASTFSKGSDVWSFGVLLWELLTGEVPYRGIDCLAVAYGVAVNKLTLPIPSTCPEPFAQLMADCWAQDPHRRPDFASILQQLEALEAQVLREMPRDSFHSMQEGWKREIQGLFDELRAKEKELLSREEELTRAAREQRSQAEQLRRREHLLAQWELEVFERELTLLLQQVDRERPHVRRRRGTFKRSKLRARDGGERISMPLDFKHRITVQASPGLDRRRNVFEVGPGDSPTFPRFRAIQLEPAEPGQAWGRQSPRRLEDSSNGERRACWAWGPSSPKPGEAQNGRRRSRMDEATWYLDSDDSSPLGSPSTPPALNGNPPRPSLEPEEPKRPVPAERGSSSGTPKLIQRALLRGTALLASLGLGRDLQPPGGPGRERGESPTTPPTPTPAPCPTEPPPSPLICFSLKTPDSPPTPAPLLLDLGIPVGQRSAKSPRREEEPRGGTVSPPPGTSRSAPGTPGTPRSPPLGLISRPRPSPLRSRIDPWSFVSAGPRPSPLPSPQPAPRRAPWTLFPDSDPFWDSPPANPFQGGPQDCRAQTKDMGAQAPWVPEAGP", "experiment": "Inhibition of MLK3 conserved Lys2 (DLKSNNILLLQPIESDDMEHK) in human PBMC at 1 uM"}, "[4]": {"target": "Mitogen-activated protein kinase 14 (Homo sapiens) (UniProt Q16539)", "sequence (Q16539 whole entry)": "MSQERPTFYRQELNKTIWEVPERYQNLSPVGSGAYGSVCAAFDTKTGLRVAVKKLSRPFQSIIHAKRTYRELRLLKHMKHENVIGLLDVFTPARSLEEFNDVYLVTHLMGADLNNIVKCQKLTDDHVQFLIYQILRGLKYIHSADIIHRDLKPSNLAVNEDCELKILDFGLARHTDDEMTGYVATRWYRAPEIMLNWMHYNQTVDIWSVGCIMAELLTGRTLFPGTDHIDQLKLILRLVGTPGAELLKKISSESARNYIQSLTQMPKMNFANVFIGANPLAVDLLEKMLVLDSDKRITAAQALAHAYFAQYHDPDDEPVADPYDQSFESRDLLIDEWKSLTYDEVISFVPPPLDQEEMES", "experiment": "Inhibition of p38a conserved Lys2 (DLKPSNLAVNEDCELK) in human PBMC at 1 uM"}, "[5]": {"target": "Phosphatidylinositol 5-phosphate 4-kinase type-2 alpha (Homo sapiens) (UniProt P48426)", "sequence (P48426 whole entry)": "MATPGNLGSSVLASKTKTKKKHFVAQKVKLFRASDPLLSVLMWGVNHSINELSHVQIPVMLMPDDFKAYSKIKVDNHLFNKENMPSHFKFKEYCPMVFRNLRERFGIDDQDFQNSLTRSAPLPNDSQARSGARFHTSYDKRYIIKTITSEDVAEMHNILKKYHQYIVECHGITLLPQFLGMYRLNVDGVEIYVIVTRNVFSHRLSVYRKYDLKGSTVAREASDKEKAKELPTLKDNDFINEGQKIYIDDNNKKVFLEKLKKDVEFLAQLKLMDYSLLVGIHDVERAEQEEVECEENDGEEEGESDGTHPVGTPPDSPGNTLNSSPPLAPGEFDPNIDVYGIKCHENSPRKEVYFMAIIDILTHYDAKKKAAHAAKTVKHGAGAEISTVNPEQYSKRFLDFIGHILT", "experiment": "Inhibition of PIP4K2A ATP binding site (AKELPTLKDNDFINEGQK) in human PBMC at 1 uM"}, "[6]": {"target": "Mitogen-activated protein kinase kinase kinase 20 (Homo sapiens) (UniProt Q9NYL2)", "sequence (Q9NYL2 whole entry, looked up)": "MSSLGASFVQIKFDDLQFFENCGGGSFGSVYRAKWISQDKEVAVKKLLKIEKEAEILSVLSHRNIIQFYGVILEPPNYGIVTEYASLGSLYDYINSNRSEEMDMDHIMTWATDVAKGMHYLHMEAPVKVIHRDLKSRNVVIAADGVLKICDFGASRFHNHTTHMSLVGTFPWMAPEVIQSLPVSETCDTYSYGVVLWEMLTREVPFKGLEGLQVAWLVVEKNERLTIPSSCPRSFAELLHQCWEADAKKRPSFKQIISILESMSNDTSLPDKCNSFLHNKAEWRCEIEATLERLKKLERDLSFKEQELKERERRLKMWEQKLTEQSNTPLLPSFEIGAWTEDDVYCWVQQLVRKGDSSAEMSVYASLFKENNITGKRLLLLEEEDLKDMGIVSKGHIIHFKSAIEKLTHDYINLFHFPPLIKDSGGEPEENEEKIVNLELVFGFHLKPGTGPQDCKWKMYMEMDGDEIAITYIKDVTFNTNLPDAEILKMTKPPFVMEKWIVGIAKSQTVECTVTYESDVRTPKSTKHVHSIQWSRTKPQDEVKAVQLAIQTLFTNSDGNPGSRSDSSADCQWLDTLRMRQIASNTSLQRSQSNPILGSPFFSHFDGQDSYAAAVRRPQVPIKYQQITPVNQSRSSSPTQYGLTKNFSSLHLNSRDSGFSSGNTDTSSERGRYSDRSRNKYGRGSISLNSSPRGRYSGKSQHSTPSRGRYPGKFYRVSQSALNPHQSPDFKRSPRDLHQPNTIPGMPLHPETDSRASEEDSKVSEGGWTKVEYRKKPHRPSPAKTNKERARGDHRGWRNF", "experiment": "Inhibition of ZAK conserved Lys1 (WISQDKEVAVKK) in human PBMC at 1 uM"}, "[7]": {"target": "Calcium/calmodulin-dependent protein kinase type 1 (Homo sapiens) (UniProt Q14012)", "sequence (Q14012 whole entry, looked up)": "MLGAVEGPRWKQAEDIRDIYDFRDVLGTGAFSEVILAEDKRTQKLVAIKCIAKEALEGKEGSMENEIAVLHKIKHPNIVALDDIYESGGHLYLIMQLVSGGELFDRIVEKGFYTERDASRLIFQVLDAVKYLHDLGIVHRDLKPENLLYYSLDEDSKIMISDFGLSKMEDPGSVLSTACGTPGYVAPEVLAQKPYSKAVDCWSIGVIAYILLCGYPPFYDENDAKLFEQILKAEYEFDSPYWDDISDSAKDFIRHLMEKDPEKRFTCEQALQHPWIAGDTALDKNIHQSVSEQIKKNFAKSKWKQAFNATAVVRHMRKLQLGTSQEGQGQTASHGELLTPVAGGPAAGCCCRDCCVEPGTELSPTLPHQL", "experiment": "Inhibition of CaMK1a labeling at conserved Lys1 (LVAIKCIAK) in human PBMC at 0.1 uM"}, "[8]": {"target": "Calcium/calmodulin-dependent protein kinase type II subunit beta (Homo sapiens) (UniProt Q13554)", "sequence (Q13554 whole entry)": "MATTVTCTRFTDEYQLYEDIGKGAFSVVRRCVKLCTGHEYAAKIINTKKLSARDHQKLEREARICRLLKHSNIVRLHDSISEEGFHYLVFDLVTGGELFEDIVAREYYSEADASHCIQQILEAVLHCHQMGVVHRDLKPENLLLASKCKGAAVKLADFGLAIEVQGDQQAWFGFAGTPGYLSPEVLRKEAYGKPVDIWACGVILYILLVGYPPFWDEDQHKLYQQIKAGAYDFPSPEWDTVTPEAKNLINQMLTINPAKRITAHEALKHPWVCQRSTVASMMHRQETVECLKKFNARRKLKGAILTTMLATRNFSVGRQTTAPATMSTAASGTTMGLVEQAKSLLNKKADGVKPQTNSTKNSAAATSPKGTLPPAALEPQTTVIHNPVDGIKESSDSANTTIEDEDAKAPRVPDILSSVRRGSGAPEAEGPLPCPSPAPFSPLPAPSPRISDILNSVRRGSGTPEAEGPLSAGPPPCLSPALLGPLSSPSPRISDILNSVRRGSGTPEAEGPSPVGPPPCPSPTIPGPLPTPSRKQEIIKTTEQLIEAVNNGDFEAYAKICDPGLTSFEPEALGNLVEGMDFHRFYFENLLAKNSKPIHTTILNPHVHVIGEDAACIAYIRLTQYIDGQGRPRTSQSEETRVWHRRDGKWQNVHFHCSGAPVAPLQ", "experiment": "Inhibition of CaMK2b labeling at conserved Lys2 (DLKPENLLLASK) in human PBMC at 0.1 uM"}, "[9]": {"target": "Eukaryotic elongation factor 2 kinase (Homo sapiens) (UniProt O00418)", "sequence (O00418 whole entry)": "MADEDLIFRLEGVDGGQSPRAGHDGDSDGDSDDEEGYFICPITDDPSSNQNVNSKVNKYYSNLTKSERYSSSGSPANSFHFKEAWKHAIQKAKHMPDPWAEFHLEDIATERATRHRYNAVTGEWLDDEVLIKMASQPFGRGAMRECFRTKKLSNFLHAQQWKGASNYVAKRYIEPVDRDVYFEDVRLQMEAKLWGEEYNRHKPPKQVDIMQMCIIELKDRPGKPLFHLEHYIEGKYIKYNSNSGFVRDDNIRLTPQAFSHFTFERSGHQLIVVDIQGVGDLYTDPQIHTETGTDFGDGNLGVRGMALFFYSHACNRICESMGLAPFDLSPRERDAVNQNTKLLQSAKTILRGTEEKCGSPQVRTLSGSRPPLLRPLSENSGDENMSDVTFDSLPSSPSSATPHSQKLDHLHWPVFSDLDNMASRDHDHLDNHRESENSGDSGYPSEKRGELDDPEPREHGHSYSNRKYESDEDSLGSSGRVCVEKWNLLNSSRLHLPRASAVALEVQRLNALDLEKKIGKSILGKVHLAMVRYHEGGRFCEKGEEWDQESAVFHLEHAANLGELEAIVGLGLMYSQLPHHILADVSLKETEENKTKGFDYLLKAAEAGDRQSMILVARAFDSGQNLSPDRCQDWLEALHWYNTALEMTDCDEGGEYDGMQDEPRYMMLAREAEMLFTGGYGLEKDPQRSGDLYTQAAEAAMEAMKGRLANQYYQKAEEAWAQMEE", "experiment": "Inhibition of eEF2K ATP binding site (YIKYNSNSGFVR) in human PBMC at 0.1 uM"}, "[10]": {"target": "Serine/threonine-protein kinase mTOR (Homo sapiens) (UniProt P42345)", "experiment": "Inhibition of FRAP conserved Lys1 (IQSIAPSLQVITSKQRPR) in human PBMC at 0.1 uM"}},
  "data": [
    {"smiles": "CC(C)n1cc(-c2cc(-c3ccc(CN4CCOCC4)cc3)cnc2N)nn1", "values": [
      {"measurement": "CLint scaled", "setting": "[1]", "result": 20, "unit": "mL/min/kg"},
      {"measurement": "inhibition", "setting": "[2]", "result": 10.4, "unit": "%"},
      {"measurement": "inhibition", "setting": "[3]", "result": -5.2, "unit": "%"},
      {"measurement": "inhibition", "setting": "[4]", "result": 33.9, "unit": "%"},
      {"measurement": "inhibition", "setting": "[5]", "result": 13.4, "unit": "%"},
      {"measurement": "inhibition", "setting": "[6]", "result": 8, "unit": "%"},
      {"measurement": "inhibition", "setting": "[7]", "result": -7.6, "unit": "%"},
      {"measurement": "inhibition", "setting": "[8]", "result": -7.5, "unit": "%"},
      {"measurement": "inhibition", "setting": "[9]", "result": -8.1, "unit": "%"},
      {"measurement": "inhibition", "setting": "[10]", "result": 10.9, "unit": "%"}
    ]}
  ]
}
